Measured values as given in PubChem BioAssay AID1845198 (Molecular Pharmacology Branch, DTP, NCI, 2023).
A number of entries come with more than one value. The list is limited to them. The source may hold further records. Values given together are repeats in other runs, samples, wells, individuals or studies. Signs of the kind (2×) count equal records among those shown.

System: 425362-245-T-J1 tumor spheroids, viability % test/control
Assay: Anticancer human tumor 425362-245-T-J1 patient-derived melanoma cell line growth inhibition
Settings: stronger effect = lower value, spheroids with HUVEC and MSC
Text: Multicellular complex tumor spheroid response to DNA repair inhibitors in combination with DNA-damaging drugs
This study explores the anticancer activities of DNA-damaging drugs and inhibitors of DNA damage repair, both as single agents and in combinations. Complex tumor spheroids comprised of malignant cells, endothelial cells and mesenchymal stem cells served as an in vitro model for human solid tumors. This model system incorporates physiologically relevant features and patient-derived or established malignant cell lines with clinically relevant genetic alterations from many tumor types. Twenty-six patient-derived or established malignant cell lines were evaluated representing sarcoma, melanoma, small cell lung cancer (SCLC), non-small cell lung cancer (NSCLC), as well as bladder, ovarian and pancreatic cancers. The concentration ranges selected for each drug and investigational agent were based upon clinically achievable concentrations if the clinical Cmax of the agent was known.
Compounds. The drugs and compounds olaparib (NSC753686), talazoparib (NSC767125), berzosertib (NSC777718), elimusertib (NSC800525), nedisertib (NSC802822), VX-984 (NSC792969), AZD-1390 (NSC803789), temozolomide (NSC362856), topotecan (NSC609699), trabectedin (NSC813783), staurosporine (NSC755774), and gemcitabine (NSC613327) were obtained from the National Cancer Institute (NCI) Developmental Therapeutics Program Chemical Repository. The FDA-approved anticancer drug set is available from the Developmental Therapeutics Program at https://dtp.cancer.gov/organization/dscb/obtaining/available_plates.htm. […] The stock solutions were prepared in dimethyl sulfoxide (DMSO, Sigma-Aldrich, St. Louis, MO, cat. D2650) at 400-fold the tested concentration and stored at -70 degrees C. Prior to their use, the stock solutions were diluted in fresh medium and the final DMSO concentration in the assay was 0.25% (v/v). […] If the clinical Cmax for an agent had not been determined, the highest concentration tested was 10 microM. […]
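Also: spheroids exposed to agents for 7 days; 100% = DMSO vehicle control viability.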

Structure (SMILES)	viability, T/C (compound alone 0.003 µM)	viability, T/C (compound alone 1 µM)	viability, T/C (compound alone 10 µM)
CC[C@@]1(O)C(=O)OCc2c1cc1n(c2=O)Cc2cc3c(CN(C)C)c(O)ccc3nc2-1	108, 78.5, 81.9, 87.1, 82.6, 91, 100, 99.4, 93.2, 109%		
Cn1nnc2c(C(N)=O)ncn2c1=O		90, 97.1, 92.9, 99.2, 88.5, 86.6, 80.5, 95.5, 90.4, 114%	112, 89.1, 108, 107 (2×), 102, 94.9, 106, 119, 124%
